Measured values from PubChem BioAssay AID588342 (National Center for Advancing Translational Sciences (NCATS), 2011).
Screen size: about 360,000 compounds; about 25,000 (6.9%) were called active. This list was built around the results that the source calls inconclusive (neither active nor inactive); the mix of calls is not that of the screen. Calls come from the whole dose curve; as a rule, active = well fitted inhibition curve with a large enough effect; inconclusive = small, poorly fitted or top-dose-only effect; inactive = flat fitted curve, though single readings scatter. A potency beside an inconclusive call is a rough fit, not a confirmed value.

Molecular target: Luciferin 4-monooxygenase (Photinus pyralis) (UniProt P08659)
Experiment: qHTS profiling assay for firefly luciferase inhibitor/activator using purifed enzyme and Km concentrations of substrates (counterscreen for miR-21 project); note: nearly all actives have a fitted effect of over 55% in size;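 for activity change, negative = inhibition: plate controls were vehicle for no effect and reference inhibitor for full effect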
Settings: purified FLuc, luminescence inhibition; activity change, negative = inhibition: at 57.5 µM (top of the series)
Summary of the method: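 Purified P. pyralis luciferase (10nM final) with 10uM D-luciferin and 10uM ATP (Km levels) in 50mM Tris acetate pH 7.5, 10mM Mg acetate, 0.01% Tween-20, 0.05% BSA; qHTS 6-point titration, ~60 µM downward; luminescence read.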
Potency is the fitted concentration of half-maximal effect; tags give direction and shape of the fitted curve.

Sequence of UniProt P08659 (P08659 whole entry, looked up): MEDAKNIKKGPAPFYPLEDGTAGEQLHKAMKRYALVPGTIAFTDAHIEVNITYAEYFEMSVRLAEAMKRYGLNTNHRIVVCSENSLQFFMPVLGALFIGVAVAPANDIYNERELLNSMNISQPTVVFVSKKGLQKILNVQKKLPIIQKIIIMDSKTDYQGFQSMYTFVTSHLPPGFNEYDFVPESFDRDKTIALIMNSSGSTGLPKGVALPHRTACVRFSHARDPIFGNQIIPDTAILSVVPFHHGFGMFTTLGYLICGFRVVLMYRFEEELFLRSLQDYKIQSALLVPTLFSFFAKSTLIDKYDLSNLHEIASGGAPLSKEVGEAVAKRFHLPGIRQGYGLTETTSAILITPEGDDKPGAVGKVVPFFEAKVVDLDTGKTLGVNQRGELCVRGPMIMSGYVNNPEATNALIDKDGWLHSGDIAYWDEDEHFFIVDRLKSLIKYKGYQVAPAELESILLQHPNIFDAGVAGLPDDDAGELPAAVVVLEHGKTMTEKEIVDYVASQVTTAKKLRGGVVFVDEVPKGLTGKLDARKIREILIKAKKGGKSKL

Structure (SMILES)	Potency	activity change, negative = inhibition
O=C(Nc1cccc(C(=O)Nc2cccc(Br)c2)c1)c1ccccc1	inconclusive: 30.1 µM [inhibitor, single point]	–
O=C(OCc1nc2ccccc2s1)[C@@H]1CCCN1S(=O)(=O)c1ccccc1F	inconclusive: 33.8 µM [inhibitor, single point]	–
CNC(=S)N/N=C(\C)c1ccc(N2CCOCC2)cc1	inconclusive: 23.9 µM [inhibitor, partial curve, poor fit]	–
NC(=O)c1cnn(-c2ccc3ccccc3c2)c1N	inconclusive: 26.9 µM [inhibitor, single point]	–
COc1ccccc1/C=C/C=C1\Oc2c(ccc(O)c2CN2CCN(CCO)CC2)C1=O	active: 3.79 µM	–
O=C(Nc1ccccc1-c1nc2ccccc2[nH]1)c1ccc(N2C(=O)CCC2=O)cc1	–	inactive: -0.61%
Cc1ccc(NC2c3ncccc3C(=O)N2Cc2cccs2)cc1 (stereo not given)	inconclusive: 37.9 µM [inhibitor, single point]	–
O=C(O)c1cccc(NC2=C(N3CCOCC3)C(=O)c3ccccc3C2=O)c1	inconclusive: 26.9 µM [inhibitor, single point]	–
CCOc1ccc(C(=O)Nc2cc3c(cc2N2CCCC2)n(CC)c(=O)n3CC)cc1OCC	–	inactive: 3.51%
Cc1ccccc1-n1ncc(C(C)NC(=O)c2ccccc2)c1C (stereo not given)	inconclusive: 37.9 µM [inhibitor, single point]	–
O=C(Cn1nnc(-c2ccccc2)n1)N/N=C/c1ccco1	–	inactive: 3.21%
CC1CCN(S(=O)(=O)c2cc(C(=O)NCCc3ccccc3)n(C)c2)CC1	–	inactive: 2.4%
COc1cccc(CN(C)C(=O)CSCC(=O)Nc2ccc(C)cc2)c1OC	inconclusive: 7.57 µM [inhibitor, single point]	–
CCNC(=O)c1sc(-c2ccccc2)nc1C	inconclusive: 26.9 µM [inhibitor, partial curve, poor fit]	–
CCOC(=O)N1CCN(C(=O)C(=O)NN)CC1	–	inactive: 1.1%
CC(OC(=O)Cn1cnc2c1c(=O)n(C)c(=O)n2C)C(=O)Nc1ccc(Cl)cc1 (stereo not given)	–	inactive: 0.855%
COCCC(=O)N1CCC(Oc2ccc(C(=O)NCCCC3CCCC3)cc2)CC1	–	inactive: -19.8%
CC1CCCCN1C(=O)CSc1nnc(-c2cccs2)o1 (stereo not given)	active: 21.3 µM	–

Structure (SMILES)	Potency	activity change, negative = inhibition
N/C(=N\OC(=O)c1ccccc1F)c1ccc([N+](=O)[O-])cc1	inconclusive: 2.69 µM [inhibitor, full curve]	–
O=C1c2ccccc2OCOc2ccccc21	–	inactive: -13.1%
COc1ccc(-c2csc(NC(=O)c3ccccc3Br)c2C(=O)O)cc1	inconclusive: 37.9 µM [inhibitor, single point]	–
CCOCCCNC(=O)c1cc2c(=O)n3ccccc3nc2s1	–	inactive: -15%
COc1cc(C(=O)NC2CCN(Cc3ccccc3)CC2)cc(Cl)c1OC	–	inactive: -4.83%
O=C(NCc1ccccn1)c1ccc(N2CCCC2=O)cc1	inconclusive: 30.1 µM [inhibitor, partial curve, poor fit]	–
C=CCN(c1ccc(C(=O)NCCSc2ccccc2)cc1)S(C)(=O)=O	inconclusive: 26.9 µM [inhibitor, single point]	–
O=C(CSCC(=O)Nc1nc(-c2ccc3c(c2)OCO3)cs1)Nc1nccs1	inconclusive: 26.9 µM [inhibitor, single point]	–
N#CCC(=O)NNc1c([N+](=O)[O-])cc(C(F)(F)F)cc1[N+](=O)[O-]	inconclusive: 37.9 µM [inhibitor, partial curve, poor fit]	–
CN(C)C(=O)CCCc1nc(-c2ccc(Cl)cc2)no1	inconclusive: 23.9 µM [inhibitor, partial curve]	–
Cc1ccc(-c2cc(C(=O)NCCCn3ccnc3)no2)cc1	inconclusive: 26.9 µM [inhibitor, single point]	–
Cc1nn(-c2ccccc2)c(C)c1C(=O)OCC(=O)Nc1ccccc1C(F)(F)F	inconclusive: 21.3 µM [inhibitor, partial curve, poor fit]	–
CC(C)C(=O)Nc1ccc(-c2csc(-c3ccccc3)n2)cc1	inconclusive: 2.69 µM [inhibitor, partial curve, poor fit]	–
Nc1nc(-c2ccc(Cl)cc2)c(N=Nc2ccc(S(=O)(=O)N3CCOCC3)cc2)s1	inconclusive: 26.9 µM [inhibitor, partial curve, poor fit]	–
CC1CCC(NC(=O)C2CCN(c3c4c(nc5ncnn35)CCC4)CC2)CC1 (stereo not given)	inconclusive: 37.9 µM [inhibitor, partial curve, poor fit]	–
O=C(COC(=O)C1CCCC1)Nc1ncc(Cl)cc1Cl	inconclusive: 30.1 µM [inhibitor, partial curve, poor fit]	–
Cc1ccc(-n2nc3ccc(NC(=O)/C=C/c4ccco4)cc3n2)cc1C	active: 9.53 µM	–
